# Assay results published in the supplement of paper PMC8728848.
# Some of the results follow.
# Assays:
# Assay in all cases: glycan array binding signal (z-score within array); higher = stronger binding
# Conditions in all cases: glycan notation: IUPAC condensed, linker removed
# [1] = biological target: Man(a1-2)Man(a1-2)Man(a1-3)Man
# In short: (§1)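 From the Consortium for Functional Glycomics database, 3228 arrays were curated, keeping only those whose protein sequence was available. Binding is given as a within-array Z-score averaged across arrays sharing a protein sequence and across linkers. Negative Z-scores can be read as non-binding.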
# [2] = biological target: Man(a1-2)Man(a1-2)Man(a1-6)[Man(a1-3)]Man
# In short: as §1
# Man(a1-2)Man(a1-3)Man = biological target: Man(a1-2)Man(a1-3)Man
# In short: as §1
# [3] = biological target: Man(a1-2)Man(a1-3)[Man(a1-2)Man(a1-6)]Man
# In short: as §1
# [4] = biological target: Man(a1-2)Man(a1-3)[Man(a1-2)Man(a1-6)]Man(a1-6)[Man(a1-2)Man(a1-2)Man(a1-3)]Man
# In short: as §1
# [5] = biological target: Man(a1-2)Man(a1-3)[Man(a1-2)Man(a1-6)]Man(a1-6)[Man(a1-2)Man(a1-2)Man(a1-3)]Man(b1-4)GlcNAc(b1-4)GlcNAc
# In short: as §1
# [6] = biological target: Man(a1-2)Man(a1-3)[Man(a1-6)]Man(a1-6)[Man(a1-2)Man(a1-3)]Man(b1-4)GlcNAc(b1-4)GlcNAc
# In short: as §1
# [7] = biological target: Man(a1-2)Man(a1-6)[Man(a1-3)]Man(a1-6)[Man(a1-2)Man(a1-2)Man(a1-3)]Man
# In short: as §1
# [8] = biological target: Man(a1-2)Man(a1-6)[Man(a1-3)]Man(a1-6)[Man(a1-2)Man(a1-2)Man(a1-3)]Man(b1-4)GlcNAc(b1-4)GlcNAc
# In short: as §1
# Man(a1-3)[Man(a1-6)]Man = biological target: Man(a1-3)[Man(a1-6)]Man
# In short: as §1
# [9] = biological target: Man(a1-3)[Man(a1-6)]Man(a1-6)[Man(a1-2)Man(a1-3)]Man(b1-4)GlcNAc(b1-4)GlcNAc
# In short: as §1
# [10] = biological target: Man(a1-3)[Man(a1-6)]Man(a1-6)[Man(a1-3)]Man
# In short: as §1
# [11] = biological target: Man(a1-3)[Man(a1-6)]Man(a1-6)[Man(a1-3)]Man(b1-4)GlcNAc(b1-4)GlcNAc
# In short: as §1
# [12] = biological target: Man(a1-3)[Man(a1-6)]Man(b1-4)GlcNAc(b1-4)GlcNAc
# In short: as §1
# [13] = biological target: Man(a1-3)[Man(a1-6)]Man(b1-4)GlcNAc(b1-4)[Fuc(a1-6)]GlcNAc
# In short: as §1
# Man(a1-6)Man = biological target: Man(a1-6)Man
# In short: as §1
# Man(b1-4)GlcNAc = biological target: Man(b1-4)GlcNAc
# In short: as §1
# MurNAc(b1-4)GlcNAc = biological target: MurNAc(b1-4)GlcNAc
# In short: as §1
# Neu5Ac(a2-3)Gal = biological target: Neu5Ac(a2-3)Gal
# In short: as §1
# [14] = biological target: Neu5Ac(a2-3)Gal(b1-3)GalNAc
# In short: as §1
# [15] = biological target: Neu5Ac(a2-3)Gal(b1-3)GalNAc(b1-3)Gal(a1-4)Gal(b1-4)Glc
# In short: as §1
# [16] = biological target: Neu5Ac(a2-3)Gal(b1-3)GalNAc(b1-3)Gal(b1-4)GlcNAc
# In short: as §1
# [17] = biological target: Neu5Ac(a2-3)Gal(b1-3)GalNAc(b1-4)[Neu5Ac(a2-3)]Gal(b1-4)Glc
# In short: as §1
# [18] = biological target: Neu5Ac(a2-3)Gal(b1-3)GalNAc(b1-4)[Neu5Ac(a2-8)Neu5Ac(a2-3)]Gal(b1-4)Glc
# In short: as §1
# [19] = biological target: Neu5Ac(a2-3)Gal(b1-3)GalNAc6S
# In short: as §1
# [20] = biological target: Neu5Ac(a2-3)Gal(b1-3)GlcNAc
# In short: as §1
# [21] = biological target: Neu5Ac(a2-3)Gal(b1-3)GlcNAc(b1-2)Man
# In short: as §1
# [22] = biological target: Neu5Ac(a2-3)Gal(b1-3)GlcNAc(b1-2)Man(a1-3)[GlcNAc(b1-4)][Neu5Ac(a2-3)Gal(b1-3)GlcNAc(b1-2)Man(a1-6)]Man(b1-4)GlcNAc(b1-4)GlcNAc
# In short: as §1
# [23] = biological target: Neu5Ac(a2-3)Gal(b1-3)GlcNAc(b1-2)Man(a1-3)[Neu5Ac(a2-3)Gal(b1-3)GlcNAc(b1-2)Man(a1-6)]Man(b1-4)GlcNAc(b1-4)GlcNAc
# In short: as §1
# [24] = biological target: Neu5Ac(a2-3)Gal(b1-3)GlcNAc(b1-2)[Neu5Ac(a2-3)Gal(b1-3)GlcNAc(b1-4)]Man(a1-6)[Neu5Ac(a2-3)Gal(b1-3)GlcNAc(b1-2)Man(a1-3)]Man(b1-4)GlcNAc(b1-4)GlcNAc
# In short: as §1
# [25] = biological target: Neu5Ac(a2-3)Gal(b1-3)GlcNAc(b1-3)Gal(b1-3)GlcNAc
# In short: as §1
# [26] = biological target: Neu5Ac(a2-3)Gal(b1-3)GlcNAc(b1-3)Gal(b1-4)GlcNAc
# In short: as §1
# [27] = biological target: Neu5Ac(a2-3)Gal(b1-3)GlcNAc(b1-3)GalNAc
# In short: as §1
# [28] = biological target: Neu5Ac(a2-3)Gal(b1-3)GlcNAc(b1-4)Gal(b1-4)Glc
# In short: as §1
# [29] = biological target: Neu5Ac(a2-3)Gal(b1-3)GlcNAc(b1-6)GalNAc
# In short: as §1
# [30] = biological target: Neu5Ac(a2-3)Gal(b1-3)GlcNAc6S
# In short: as §1
# [31] = biological target: Neu5Ac(a2-3)Gal(b1-3)[Fuc(a1-4)]GlcNAc
# In short: as §1
binder,measurement,setting,value
MGL6A (Homo sapiens) (protein) MTRTYENFQYLENKVKVQGFKNGPLPLQSLLQRLCSGPCHLLLSLGLGLLLLVIICVVGFQNSKFQRDLVTLRTDFSNFTSNTVAEIQALTSQGSSLEETIASLKAEVEGFKQERQAVHSEMLLRVQQLVQDLKKLTCQVATLNNNGEEASTEGTCCPVNWVEHQDSCYWFSHSGMSWAEAEKYCQLKNAHLVVINSREEQNFVQKYLGSAYTWMGLSDPEGAWKWVDGTDYATGFQNWKPGQPDDWQGHGLGGGEDCAHFHPDGRWNDDVCQRPYHWVCEAGLGQTSQESH,glycan array binding signal (z-score),[1],-0.301
same,glycan array binding signal (z-score),[2],-0.283
same,glycan array binding signal (z-score),Man(a1-2)Man(a1-3)Man,-0.155
same,glycan array binding signal (z-score),[3],-0.261
same,glycan array binding signal (z-score),[4],-0.231
same,glycan array binding signal (z-score),[5],-0.153
same,glycan array binding signal (z-score),[6],-0.224
same,glycan array binding signal (z-score),[7],-0.288
same,glycan array binding signal (z-score),[8],-0.211
same,glycan array binding signal (z-score),Man(a1-3)[Man(a1-6)]Man,-0.22
same,glycan array binding signal (z-score),[9],-0.017
same,glycan array binding signal (z-score),[10],-0.286
same,glycan array binding signal (z-score),[11],-0.322
same,glycan array binding signal (z-score),[12],-0.224
same,glycan array binding signal (z-score),[13],-0.253
same,glycan array binding signal (z-score),Man(a1-6)Man,-0.275
same,glycan array binding signal (z-score),Man(b1-4)GlcNAc,-0.258
same,glycan array binding signal (z-score),MurNAc(b1-4)GlcNAc,-0.247
same,glycan array binding signal (z-score),Neu5Ac(a2-3)Gal,-0.26
same,glycan array binding signal (z-score),[14],-0.01
same,glycan array binding signal (z-score),[15],-0.292
same,glycan array binding signal (z-score),[16],-0.144
same,glycan array binding signal (z-score),[17],-0.142
same,glycan array binding signal (z-score),[18],-0.24
same,glycan array binding signal (z-score),[19],-0.328
same,glycan array binding signal (z-score),[20],-0.268
same,glycan array binding signal (z-score),[21],-0.281
same,glycan array binding signal (z-score),[22],-0.268
same,glycan array binding signal (z-score),[23],-0.272
same,glycan array binding signal (z-score),[24],-0.268
same,glycan array binding signal (z-score),[25],-0.29
same,glycan array binding signal (z-score),[26],-0.262
same,glycan array binding signal (z-score),[27],-0.273
same,glycan array binding signal (z-score),[28],-0.286
same,glycan array binding signal (z-score),[29],3.45
same,glycan array binding signal (z-score),[30],-0.25
same,glycan array binding signal (z-score),[31],-0.286
